The values that follow come from the BET-seq Pho4 binding data (Le et al. 2018).

The list shows a part of the results. These are noisy estimates, calculated here from bound and input reads.

In this experiment the target is T1, Pho4 (S. cerevisiae) (UniProt P07270).
T1 sequence: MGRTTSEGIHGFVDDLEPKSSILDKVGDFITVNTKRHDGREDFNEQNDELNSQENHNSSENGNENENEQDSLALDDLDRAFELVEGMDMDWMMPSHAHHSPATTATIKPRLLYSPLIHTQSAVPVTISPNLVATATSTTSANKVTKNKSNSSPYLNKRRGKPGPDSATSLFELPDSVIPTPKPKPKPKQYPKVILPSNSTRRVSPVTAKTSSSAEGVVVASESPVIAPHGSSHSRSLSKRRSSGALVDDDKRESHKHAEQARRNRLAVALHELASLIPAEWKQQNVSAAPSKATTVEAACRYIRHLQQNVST
Kind of experiment: relative binding free energy (BET-seq); higher = weaker binding. The following applies: reference: library average.
As for GGCGTCACGTGCGGAG, the “relative binding free energy” value came out at 0.08 kcal/mol.

Regarding TTTGACACGTGATTGT, the “relative binding free energy” value worked out at 0.19 kcal/mol.

For the sequence GTCCGCACGTGGGGTA, the “relative binding free energy” value is -0.13 kcal/mol.

As to TTCATCACGTGATTTA, the “relative binding free energy” value amounted to 0.18 kcal/mol.

For the sequence GTAGTCACGTGAATAT, the “relative binding free energy” value is 0.27 kcal/mol.

As for AGAGTCACGTGGCATG, the “relative binding free energy” value worked out at 0.15 kcal/mol.

For the sequence TGTTTCACGTGGGCAT, the “relative binding free energy” value was 0.06 kcal/mol.

Turning to TGGGTCACGTGTCATA, the “relative binding free energy” value was found to be 0.18 kcal/mol.

Turning to TTTGTCACGTGGCGCG, the “relative binding free energy” value came out at 0.01 kcal/mol.

For the sequence ATAGTCACGTGAAGGA, the “relative binding free energy” value came to 0.48 kcal/mol.

Consider AGAGTCACGTGTCTGT, for which the “relative binding free energy” value is 0.04 kcal/mol.

As for TCTGTCACGTGAAAGT, the “relative binding free energy” value amounted to 0.35 kcal/mol.

Turning to GGATTCACGTGGTTGC, the “relative binding free energy” value came to 0.33 kcal/mol.

Turning to ATTATCACGTGAGATT, the “relative binding free energy” value was determined as 0.26 kcal/mol.

Turning to AGAATCACGTGTTTCG, the “relative binding free energy” value was determined as 0.22 kcal/mol.

On to AGTGTCACGTGTGGTA, for which the “relative binding free energy” value is 0.12 kcal/mol.

Turning to TAGGGCACGTGAGGGA, the “relative binding free energy” value turned out to be 0.19 kcal/mol.

As for GGCGGCACGTGGATCG, the “relative binding free energy” value is -0.07 kcal/mol.

Regarding TCGGGCACGTGGGAAG, the “relative binding free energy” value is -0.11 kcal/mol.

Consider GAGGGCACGTGTAAGG, for which the “relative binding free energy” value was -0.03 kcal/mol.

For the sequence AAGTGCACGTGGATTA, the “relative binding free energy” value was -0.11 kcal/mol.

Consider GGTATCACGTGTTGAG, for which the “relative binding free energy” value amounted to 0.24 kcal/mol.

As for GGCTTCACGTGGTTGT, the “relative binding free energy” value was 0.24 kcal/mol.

Consider GTATTCACGTGGTATA, for which the “relative binding free energy” value amounted to 0.17 kcal/mol.

Regarding GTAAGCACGTGCATGT, the “relative binding free energy” value is -0.01 kcal/mol.

On to AGGGTCACGTGGCAGA, for which the “relative binding free energy” value is -0.04 kcal/mol.

For the sequence CCTGGCACGTGTTAGT, the “relative binding free energy” value came to 0.01 kcal/mol.

Take TTTGACACGTGAGACT: the “relative binding free energy” value came to 0.23 kcal/mol.

For GGGTGCACGTGTTGGG, the “relative binding free energy” value stood at 0.08 kcal/mol.

As to TATTACACGTGGAAGG, the “relative binding free energy” value turned out to be 0.15 kcal/mol.

As for GAGAGCACGTGGTATA, the “relative binding free energy” value was -0.19 kcal/mol.

On to GTTCTCACGTGTGTAT, for which the “relative binding free energy” value stood at 0.23 kcal/mol.

Turning to TTTGTCACGTGATGTT, the “relative binding free energy” value is 0.24 kcal/mol.

Turning to CATTCCACGTGTGGGG, the “relative binding free energy” value was found to be 0.12 kcal/mol.

Consider CTAGTCACGTGTGCTG, for which the “relative binding free energy” value was 0.07 kcal/mol.

For AGGTACACGTGTGTGA, the “relative binding free energy” value turned out to be 0.09 kcal/mol.

Take GGTGACACGTGCCGTT: the “relative binding free energy” value stood at 0.1 kcal/mol.

TTTTCCACGTGGGGGC: the “relative binding free energy” value is -0.1 kcal/mol.

Consider TGTCTCACGTGGTAAT, for which the “relative binding free energy” value came to 0.15 kcal/mol.

As for CGTATCACGTGGGCCG, the “relative binding free energy” value stood at 0.24 kcal/mol.

With GGGAGCACGTGTAGGC, the “relative binding free energy” value is -0.1 kcal/mol.

Take CCAAGCACGTGGGGGT: the “relative binding free energy” value is -0.23 kcal/mol.

Turning to TTGAACACGTGCTTTT, the “relative binding free energy” value is -0.07 kcal/mol.

As to TGCCGCACGTGGGGAG, the “relative binding free energy” value was -0.18 kcal/mol.

Regarding AGTTTCACGTGTAGTT, the “relative binding free energy” value came out at 0.14 kcal/mol.

Take GTGAACACGTGAAGAG: the “relative binding free energy” value stood at 0.4 kcal/mol.

As for CTTGGCACGTGATCGG, the “relative binding free energy” value was -0.09 kcal/mol.

Consider TGCGCCACGTGTTAGG, for which the “relative binding free energy” value is -0.04 kcal/mol.

For the sequence TGTGGCACGTGTTAGG, the “relative binding free energy” value is 0.02 kcal/mol.

Take CTAGTCACGTGGTAAG: the “relative binding free energy” value came to 0.14 kcal/mol.

For CGTGTCACGTGTTATA, the “relative binding free energy” value was determined as 0.09 kcal/mol.

CTAGTCACGTGTGGTA: the “relative binding free energy” value worked out at 0.1 kcal/mol.

As for TTATGCACGTGTGGTT, the “relative binding free energy” value was 0.05 kcal/mol.

For the sequence TTAGACACGTGGGAGG, the “relative binding free energy” value was -0.16 kcal/mol.

As to GTAGTCACGTGAATGG, the “relative binding free energy” value turned out to be 0.41 kcal/mol.

As to CGATGCACGTGAGAGG, the “relative binding free energy” value stood at 0.16 kcal/mol.

With CGGGTCACGTGAGGTT, the “relative binding free energy” value amounted to 0.35 kcal/mol.

For the sequence GGTGGCACGTGACTGA, the “relative binding free energy” value is -0.04 kcal/mol.

Turning to TGTTTCACGTGACATA, the “relative binding free energy” value came out at 0.34 kcal/mol.

Consider AATTGCACGTGAGGAA, for which the “relative binding free energy” value was found to be 0.2 kcal/mol.

Consider AGTATCACGTGGATTT, for which the “relative binding free energy” value was found to be 0.3 kcal/mol.

Take ACGATCACGTGGGGTG: the “relative binding free energy” value was -0.04 kcal/mol.

TTAGTCACGTGTGCGC: the “relative binding free energy” value was 0.14 kcal/mol.

Take AGTTTCACGTGTCGGC: the “relative binding free energy” value was found to be 0.33 kcal/mol.

As for AATATCACGTGGTTCT, the “relative binding free energy” value stood at 0.06 kcal/mol.

As for AGTTACACGTGTGAAT, the “relative binding free energy” value stood at 0.18 kcal/mol.

As for ATGGTCACGTGAGTCG, the “relative binding free energy” value was found to be 0.3 kcal/mol.

For the sequence CGTGTCACGTGCTGGT, the “relative binding free energy” value is -0.08 kcal/mol.

With TTATGCACGTGAGACG, the “relative binding free energy” value was found to be 0.11 kcal/mol.

For the sequence TTGTGCACGTGGAATC, the “relative binding free energy” value was 0.05 kcal/mol.

For GAGAGCACGTGCGTGT, the “relative binding free energy” value is -0.06 kcal/mol.

For GAACTCACGTGGGTGT, the “relative binding free energy” value stood at 0.2 kcal/mol.

For TTCTACACGTGTTGGA, the “relative binding free energy” value was found to be 0.14 kcal/mol.
